Percent labeling data for 23 compounds are collected here from PubChem BioAssay AID2202238 (Ras Initiative Chemistry Research Team, Frederick National …, 2025).

The other results are listed elsewhere or left out. The main result of the screen is listed elsewhere. These columns were measured beside it and carry no call.

The target in this experiment is GTPase KRas (Homo sapiens) (UniProt P01116). In words: Covalent labelling of cysteine mutants by fragments, read by mass spectrometry (AID 2202238). More on the design: protein at 5 µM with 500 µM competing thiol for 1.5 h. The settings on record: KRAS G12D cysteine mutants, disulfide tethering, MALDI-TOF labeling, stronger effect = higher value, fragment at 500 µM.
Sequence of UniProt P01116 (P01116 whole entry, looked up, the tested form may be a part): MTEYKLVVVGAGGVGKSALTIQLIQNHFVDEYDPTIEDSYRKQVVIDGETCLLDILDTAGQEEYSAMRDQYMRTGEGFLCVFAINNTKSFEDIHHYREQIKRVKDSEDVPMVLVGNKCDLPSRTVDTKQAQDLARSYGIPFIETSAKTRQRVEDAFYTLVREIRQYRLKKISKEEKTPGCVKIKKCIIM
[1] abbreviates: measured here: G75C mutant labeling.
The mark [2] stands for this setting: measured here: H94C mutant labeling.
The mark [3] stands for this setting: measured here: I36C mutant labeling.
[4] abbreviates: measured here: L120C mutant labeling.
The mark [5] stands for this setting: measured here: M67C mutant labeling.
Setting [6] is: measured here: M72C mutant labeling.
[7] abbreviates: measured here: N86C mutant labeling.
Where [8] appears, read: measured here: P121C mutant labeling.
The mark [9] stands for this setting: measured here: S122C mutant labeling.
Where [10] appears, read: measured here: S136C mutant labeling.
[11] abbreviates: measured here: G60C mutant labeling.
Setting [12] is: measured here: N26C mutant labeling.

For `CCC(=O)Nc1cccc(NC(=O)CCS)c1C`, the percent labeling runs as follows: under setting [1], 9.3%; under setting [2], 25.6%; under setting [3], 30.1%; under setting [4], 32.7%; under setting [5], 27%; under setting [6], 21%. Also, the percent labeling worked out at 25.8% under setting [7], 31% under setting [8], 37.1% under setting [9] and 48.7% under setting [10].
For `O=C(Cn1cccc(C(F)(F)F)c1=O)NCCS`, the percent labeling came out at 29.3% under setting [11]; 12.3% under setting [1]; 30.5% under setting [2]; 24.9% under setting [3]; 53.3% under setting [4]; 21.6% under setting [5]. Also, the percent labeling under setting [6] was found to be 18.5%; the percent labeling under setting [12] was found to be 37%; the percent labeling under setting [7] was 38%; the percent labeling under setting [8] is 34%; the percent labeling under setting [9] was 27.7%; the percent labeling under setting [10] came out at 32.8%.
On to `CC(=O)NCC1CCn2ncc(C(=O)NCCS)c2C1` (stereo not drawn), for which the percent labeling was 27.5% under setting [11]; 12.1% under setting [1]; 37.1% under setting [2]; 26.2% under setting [3]; 39.4% under setting [4]; 36.9% under setting [5]. Further, the percent labeling reads like this: under setting [6], 24.6%; under setting [12], 42.3%; under setting [7], 27%; under setting [8], 29.3%; under setting [9], 32.1%; under setting [10], 44.6%.
`O=C(Cc1cnn(Cc2ccccc2)c1)NCCS`: the percent labeling is, setting by setting: under setting [11], 33.9%; under setting [1], 9.5%; under setting [2], 30.9%; under setting [3], 28.9%; under setting [4], 34.1%; under setting [5], 47.9%. The percent labeling came to 24.5% under setting [6]; 32.4% under setting [12]; 18.7% under setting [7]; 37.4% under setting [8]; 26.8% under setting [9]; 41.7% under setting [10].
`Cc1nn(C)c(C)c1C(CC(=O)NCCS)C(F)(F)F` (stereo not drawn): the percent labeling by setting is: under setting [11], 62.2%; under setting [1], 13.5%; under setting [2], 34.8%; under setting [3], 36.2%; under setting [4], 30.3%; under setting [5], 34.6%. For the same compound, the percent labeling by setting is: under setting [6], 23.5%; under setting [12], 30%; under setting [7], 24.7%; under setting [8], 39.8%; under setting [9], 25.7%; under setting [10], 37.4%.
Consider `O=C(CC(n1ccnc1)C(F)(F)F)NCCS` (stereo not drawn), for which the percent labeling stood at 36.7% under setting [11]; 9.5% under setting [1]; 28.4% under setting [2]; 34.3% under setting [3]; 25.1% under setting [4]; 33.6% under setting [5]. Moreover, the percent labeling turned out to be 0% under setting [6]; 38.8% under setting [12]; 0% under setting [7]; 29.3% under setting [8]; 36.6% under setting [9]; 0% under setting [10].
With `O=C(CCS)N1CC2C(C(F)(F)F)(C1)CS2(=O)=O` (stereo not drawn), the percent labeling by setting is: under setting [1], 6.3%; under setting [2], 29.8%; under setting [3], 34.3%; under setting [4], 32.3%; under setting [5], 34.5%; under setting [6], 20.9%. In addition, the percent labeling under setting [7] was determined as 35.3%, the percent labeling under setting [8] was 32.9%, the percent labeling under setting [9] was 35% and the percent labeling under setting [10] stood at 43.8%.
`O=C(NCCS)C(c1ccccc1)n1cccn1` (stereo not drawn): the percent labeling by setting is: under setting [11], 44.8%; under setting [1], 20.8%; under setting [2], 32.7%; under setting [3], 30%; under setting [4], 52.4%; under setting [5], 32.7%. The percent labeling reads like this: under setting [6], 30.2%; under setting [12], 39.1%; under setting [7], 23.2%; under setting [8], 35.8%; under setting [9], 34.2%; under setting [10], 62.4%.
The compound `O=C(NCCS)c1c[nH]c(=O)c(Br)c1` gave a percent labeling under setting [1] of 17.3%; a percent labeling under setting [2] of 31.9%; a percent labeling under setting [3] of 38%; a percent labeling under setting [4] of 35.2%; a percent labeling under setting [5] of 38.8%; a percent labeling under setting [6] of 51.8%. The percent labeling by setting is: under setting [7], 28.2%; under setting [8], 30.4%; under setting [9], 39.2%; under setting [10], 51.1%.
Regarding `CCOc1ncc(C(=O)NCCS)cc1Cl`, the percent labeling reads like this: under setting [11], 32.3%; under setting [1], 11.6%; under setting [2], 11.4%; under setting [3], 9.7%; under setting [4], 15.2%; under setting [5], 8.9%. For the same compound, the percent labeling runs as follows: under setting [6], 23.6%; under setting [12], 28.7%; under setting [7], 5.1%; under setting [8], 11.2%; under setting [9], 8.6%; under setting [10], 19.5%.
Consider `O=C(NCCS)C(Oc1ccc(Br)cc1Cl)c1ccccc1` (stereo not drawn), for which the percent labeling worked out at 53.4% under setting [11]; 20.5% under setting [1]; 25% under setting [2]; 9.6% under setting [3]; 25.1% under setting [4]; 5.3% under setting [5]. The compound also had a percent labeling under setting [6] of 46%; a percent labeling under setting [12] of 32.1%; a percent labeling under setting [7] of 6.7%; a percent labeling under setting [8] of 16.5%; a percent labeling under setting [9] of 4.4%; a percent labeling under setting [10] of 20.1%.
With `Cc1cc2c(o1)CC(C)(C)CC2NC(=O)CCS` (stereo not drawn), the percent labeling by setting is: under setting [1], 17.6%; under setting [2], 29.1%; under setting [3], 22.8%; under setting [4], 15.6%; under setting [5], 22.5%; under setting [6], 19.9%. Also, the percent labeling runs as follows: under setting [7], 6.8%; under setting [8], 24.3%; under setting [9], 19.3%; under setting [10], 40.9%.
Turning to `CC(=O)NC(CC(=O)NCCS)c1ccc(F)cc1F` (stereo not drawn), the percent labeling was 52.3% under setting [11]; 18% under setting [1]; 37.1% under setting [2]; 32.6% under setting [3]; 41.7% under setting [4]; 37.6% under setting [5]. The compound also displayed a percent labeling under setting [6] of 23.9%; a percent labeling under setting [12] of 44.9%; a percent labeling under setting [7] of 33%; a percent labeling under setting [8] of 44.3%; a percent labeling under setting [9] of 35%; a percent labeling under setting [10] of 39.9%.
On to `CCc1nn(C)c(OC)c1CNC(=O)CCS`, for which the percent labeling was 10.2% under setting [1]; 24.8% under setting [2]; 31.8% under setting [3]; 21.9% under setting [4]; 27.7% under setting [5]; 15.1% under setting [6]. Moreover, the percent labeling turned out to be 7.3% under setting [7], 33.1% under setting [8], 30.3% under setting [9] and 45.4% under setting [10].
`O=C1CC(Cc2ccc(C(=O)NCCS)cc2)C(=O)N1` (stereo not drawn): the percent labeling by setting is: under setting [11], 34.2%; under setting [1], 21.7%; under setting [2], 38.6%; under setting [3], 31.4%; under setting [4], 42.6%; under setting [5], 39.6%. Further, the percent labeling is, setting by setting: under setting [6], 42.2%; under setting [12], 51.2%; under setting [7], 35.9%; under setting [8], 31.1%; under setting [9], 34.8%; under setting [10], 42.8%.
Consider `O=C(Cc1csc(-c2sccc2Br)n1)NCCS`, for which the percent labeling by setting is: under setting [11], 30.6%; under setting [1], 11.5%; under setting [2], 12.3%; under setting [3], 5.9%; under setting [4], 21.6%; under setting [5], 34.8%. For the same compound, the percent labeling worked out at 38% under setting [6]; 19.9% under setting [12]; 4.7% under setting [7]; 6.2% under setting [8]; 3.9% under setting [9]; 8% under setting [10].
As to `CN1C(=O)CCC(C(=O)NCCS)C1c1ccccc1` (stereo not drawn), the percent labeling by setting is: under setting [11], 43.3%; under setting [1], 12%; under setting [2], 40%; under setting [3], 33.5%; under setting [4], 34.2%; under setting [5], 41.9%. Also, the percent labeling is, setting by setting: under setting [6], 22.8%; under setting [12], 35.2%; under setting [7], 23.4%; under setting [8], 36.8%; under setting [9], 32.3%; under setting [10], 61.3%.
On to `O=C(CCS)NCc1ncc(-c2ccc(F)cc2)[nH]1`, for which the percent labeling was determined as 15.3% under setting [1]; 51.2% under setting [2]; 46.7% under setting [3]; 36.1% under setting [4]; 48.3% under setting [5]; 42.6% under setting [6]. Besides, the percent labeling was 20.8% under setting [7], 31.3% under setting [8], 28.4% under setting [9] and 38.3% under setting [10].
As to `COC(=O)c1cc2c(n1C)CCN(C(=O)CCS)C2`, the percent labeling under setting [1] amounted to 16.4%; the percent labeling under setting [2] is 30.2%; the percent labeling under setting [3] worked out at 34.3%; the percent labeling under setting [4] worked out at 35.6%; the percent labeling under setting [5] was found to be 32.3%; the percent labeling under setting [6] turned out to be 35.9%. Besides, the percent labeling worked out at 19.5% under setting [7], 24.1% under setting [8], 29.6% under setting [9] and 44.2% under setting [10].
For `O=C(CCS)NCCc1noc2ccccc12`, the percent labeling came to 17.1% under setting [1]; 41.1% under setting [2]; 45.1% under setting [3]; 35.4% under setting [4]; 45.9% under setting [5]; 42.8% under setting [6]. The percent labeling reads like this: under setting [7], 19.9%; under setting [8], 35.1%; under setting [9], 33.5%; under setting [10], 56.2%.
With `CC(=O)NC(Cc1ccc2c(c1)OCO2)C(=O)NCCS` (stereo not drawn), the percent labeling is 45.1% under setting [11]; 16.9% under setting [1]; 38% under setting [2]; 34.2% under setting [3]; 41.3% under setting [4]; 32.7% under setting [5]. For the same compound, the percent labeling was 24.3% under setting [6]; 39.1% under setting [12]; 27.6% under setting [7]; 34.8% under setting [8]; 31.4% under setting [9]; 44.5% under setting [10].
As for `O=C(NCCS)C1CCCN(C(=O)c2ccc3[nH]ncc3c2)C1` (stereo not drawn), the percent labeling under setting [11] came to 38.2%; the percent labeling under setting [1] stood at 15%; the percent labeling under setting [2] was determined as 31%; the percent labeling under setting [3] stood at 33.8%; the percent labeling under setting [4] was determined as 24.5%; the percent labeling under setting [5] worked out at 44.2%. The percent labeling by setting is: under setting [6], 21.4%; under setting [12], 38.3%; under setting [7], 25.1%; under setting [8], 26.8%; under setting [9], 27.9%; under setting [10], 41.1%.
Take `Cc1ccc(NC(=O)CCS)cc1NC(=O)CCN(C)C`: the percent labeling was 17% under setting [1]; 40% under setting [2]; 50.4% under setting [3]; 36.3% under setting [4]; 46.2% under setting [5]; 35.2% under setting [6]. The percent labeling was 35% under setting [7], 31.7% under setting [8], 29.9% under setting [9] and 54.6% under setting [10].
